Measured values reported in the supplement of paper PMC12632987.
Whole data set: some 1,800 sequences, median “median log2 fold change of GCK-ALFA target abundance (FLAG IP / Myc IP barcode read proportion)” near 0.14, cut for the lowest 2% near -0.84. Some of the results follow.

T1: TRAF2, Q12933
T1 chain: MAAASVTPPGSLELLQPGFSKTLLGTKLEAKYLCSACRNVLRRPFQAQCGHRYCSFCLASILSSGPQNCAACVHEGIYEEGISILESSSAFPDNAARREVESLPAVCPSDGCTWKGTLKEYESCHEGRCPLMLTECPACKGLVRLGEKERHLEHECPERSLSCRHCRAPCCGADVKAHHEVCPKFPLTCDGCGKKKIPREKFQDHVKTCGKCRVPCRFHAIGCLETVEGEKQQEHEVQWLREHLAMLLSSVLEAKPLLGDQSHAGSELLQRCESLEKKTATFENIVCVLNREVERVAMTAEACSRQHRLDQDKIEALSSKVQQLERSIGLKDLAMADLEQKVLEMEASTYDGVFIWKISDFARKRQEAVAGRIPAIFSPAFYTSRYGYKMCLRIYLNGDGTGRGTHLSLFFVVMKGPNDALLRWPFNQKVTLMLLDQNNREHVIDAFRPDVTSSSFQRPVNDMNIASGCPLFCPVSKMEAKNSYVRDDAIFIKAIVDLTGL

B1: traf2_out_13_95_1138 (protein)
chain: SKETAEKIMEVADKMLEKVEEILNELLEIAKKKGKLEKEIEEVLHTARYRSINEAIHLLKELSKKYPEFKEELDKAIKEIEEIRREAGREVAKILKEAKE
B2: traf2_out_16_104_1412 (protein)
chain: AAAKDAAFEAIIAELNAIADRAGRLANRVYNLMLTASPEDRKKLSDLLVKASELRREALAAAQAVEEGRKAGADLAEARATLAALTARLEALEKELKALE
B3: traf2_out_18_117_1790 (protein)
chain: SRREELIKELEEIAERLGRAASRLGKAVLENWDKLTQEEKSEAMDVLADLTEVRREALELIHKIKTENIPVEEAEKRLKELRERAEKAIKAAEERIKKIE
B4: traf2_out_17_162_1555 (protein)
chain: MELEERLEELKEELERLEKELKRLEEKLKKLEELSKEELTDLLVEASELRRRALELALELEELREEVGEEEMEELIERARRLAEEFQRIANEIYKELLKK
B5: traf2_out_15_48_1339 (protein)
chain: SVEELREVAREIADEIDAEKDRIAEELEKLLPKAKPEVQKLLKEAIDAAKNGRGNNTVIALLDELEPKLDPEQQKIVTELRDRLRAVNRAASRRMAEVLK
B6: traf2_out_3_89_2300 (protein)
chain: MEEEEKKIEEAKKRAEAYAKGFEKSLTFVAKEMIKDGHSLETLEGVANSAKTALAEVFRESLKEEGLSEEKIKELVEEFTKKLDEIVKKVIEEAKKKRKE
B7: traf2_out_3_89_2290 (protein)
chain: MEERERKIEEARERAERYVRGFEKNARRVMKEMLAEGHSLETLEGVLKAARTAIVEVFRETLKEEGIDEETRAELVAELEERLDAIVERVVAEAKERRAA
B8: traf2_out_20_3_2068 (protein)
chain: EELEKELEEALEKALALLKKAAALADPETAAELDALIKELKASKELSVSDRLVAVSAVRRRVLRLAEEAEAAGDAELAAVLNKAADALNRAAQLLYQILQ
B9: traf2_out_11_169_884 (protein)
chain: EEAEKNREFNDFALELNDEAKEKLLEFAKELAKKLGLDVEEVEKIYEENKNKSLSYLASKLIEYFRSKGKEDAAKAVEEKYEELKEEINKKGTEKMKELE
B10: traf2_out_11_104_645 (protein)
chain: LTREQAREFNDFAMKKRDEALKLAKEVAKFLKEKGHEEEAAEVEKALAHPGTGPSSLKNLLEELLPKLDEESKKKAEKAIEEIEKLIKEASKKLNELEEK
B11: traf2_out_20_3_2245 (protein)
chain: EELREKAKEYLEKARELLKKVEPLLKPEDAAELKELLEKAEEAFETDLTDALVYLSELRRKALELAEEARAAGDEETAALLEELAEAVGKAANYIYKIVE
B12: traf2_out_13_95_1098 (protein)
chain: SAEVAKKIMEIADEMLDKVEEILEELLKKAKEAGKLEKEVQEALDLAKYRSINEAIHKLEELAKKHPEFKEEYNEAIEKIKALRREAGRKVAEILKEEEE
B13: traf2_out_8_15_2546 (protein)
chain: SSFESNVARAKRALEKAGYTEESVLRNVRAMMRHTLRTTKELIERGEVEEARALSNSMFSIARAMLEAYAELHPEAKEAMEKALEEVDKVEEEVKKLLEE
B14: traf2_out_15_48_1343 (protein)
chain: STEELRKVASEIADEIDAKKDEIAKRLEELIPKAPPEDAALLTELRDLAKSGATQRDVLAKMDEVIPKLSPEFAAKVTELREELEEVLREASKRMNEVLK
B15: traf2_out_20_3_2071 (protein)
chain: KELEEEAERELERALELLKRAAELADEETAKRLEELIKRLKASRELSVDDRLVVVSEVRREVLELAEEAKAAGKEELAKELEEAAEALNRAAQLLYDILQ
B16: traf2_out_11_104_646 (protein)
chain: LTREQAREFNDFAMEANDKAKELLQEVADFLESRGHEEEAAKVRAELAHPGSGVSTFKNLLEELLPKLDEESRAVAEKAIKELEELQKKVSDKLNELEKK
B17: traf2_out_11_155_681 (protein)
chain: EEKQKLNNELVDKVTAIADELKAQVAAIAAEAAAAHPEHAAEIAATLAASAPFSWRTFAGTAAATFDRLGDAAAAARVRALLEEAQKKANEIVKEIEAKI
B18: traf2_out_13_95_1208 (protein)
chain: EEEKTRKLREKMNEIADELIDFIEEKAEEIEKATGNEEYKKDILSTLRRNGVRAAVALIKEYAKKDPKYKEVYEKAAEEAEAKIREAGRKAAEEIKRIEE
B19: traf2_out_18_167_1827 (protein)
chain: EEEKREELERLTDRLVAYSEIKRAALLAIEKLRTDPAAYPAALARTIELLDAVPEFRPWAERLRAAPEAEKEALLEEIAEAAQREANRLYKERERLLKEL

Target: T1, TRAF2, Q12933
Assay: median log2 fold change of GCK-ALFA target abundance (FLAG IP / Myc IP barcode read proportion) (log2 ratio); each designed protein is fused to an ALFA-tag nanobody in HEK293 cells to bring the named protein to FLAG-tagged glucokinase (GCK); Myc marks an untargeted standard; higher = target protein stabilised (more abundant)
Conditions: target protein: 3xFLAG-MCP-GCK-ALFA reporter; HEK293 landing pad (RPLP)
Procedure, shortened: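 An ALFA-nanobody-fused binder library was recombined into HEK293 landing-pad cells and induced with 2 μg mL^−1 doxycycline. Cells were transfected with a plasmid expressing a FLAG-tagged target and a Myc-tagged standard. After 48 h, lysates underwent anti-FLAG and anti-Myc immunoprecipitation, and circular RNA barcodes were reverse transcribed, amplified and sequenced. Target abundance is the per-binder median log2 ratio of FLAG to Myc barcode read proportions. Barcodes needed ≥10^−7 proportion in both replicates, binders ≥3 barcodes per replicate, and a 10^−6 pseudocount was added; the two replicates were pooled.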

Row | Binder | median log2 fold change
1 | B1 | -0.826
2 | B2 | 0.118
3 | B3 | -0.104
4 | B4 | 0.252
5 | B5 | 0.217
6 | B6 | -0.622
7 | B7 | -0.754
8 | B8 | -0.0614
9 | B9 | 0.298
10 | B10 | 0.284
11 | B11 | 0.264
12 | B12 | -0.841
13 | B13 | -0.64
14 | B14 | 0.156
15 | B15 | 0.112
16 | B16 | 0.185
17 | B17 | 0.223
18 | B18 | -0.7
19 | B19 | 0.289
